Source: the RNAGym collection of RNA variant scans (doi:10.1073/pnas.2313332121)
This sample is rich in variants without activity.

B1: TPR 5TU (parent)
chain: GGAUCUUCUCGAUCUAACAAAAAAGACAAAUCUGCCACAAAGCUUGAGAGCAUCUUCGGAUGCAGAGGCGGCAGCCUUCGGUGGCGCGAUAGCGCCAACGUUCUCAACUAUGACACGCAAAACGCGUGCUCCGUUGAAUGGAGUUUAUCAUG

Variants of: B1
Assay: polymerase ribozyme fitness, log enrichment relative to wild type (log ratio); higher = more active; in vitro selection for triplet polymerase activity
In short: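 Genotype fitness is the logarithm of its enrichment divided by wild-type enrichment, using inverse-variance-weighted averages of replicates. That logarithm is base 2. Enrichment was measured by Illumina sequencing of input and output libraries from one triplicate in vitro selection round, with frozen incubation at −7 °C, on PCR-built, transcribed mutant libraries of each subunit of a heterodimeric triplet polymerase ribozyme, retaining genotypes with ≥10 input reads and ≥1 read per output.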

Variant | polymerase ribozyme fitness (log ratio)
G50C U53A U56A A89G C108G A119U | ≤ -4.2
C51G C75A C93U A113C U144C | ≤ -4.2
C51U C57A U82C C85A A110C A121U | ≤ -4.2
C51U C75G A91U A138G | ≤ -4.2
G50U U55A C85G G92A A115U | ≤ -4.2
C51G C57U G67C C87G A91G | ≤ -4.2
G50C C87U A150C U151A | ≤ -4.2
C51U U82A G86A A98U A147G | ≤ -4.2
A52C A89U C95U A110G G126U A142G U146A | ≤ -4.2
G50C G80C A138U | ≤ -4.2
G50C C95G U101G A115U C118G A122C G126U | ≤ -4.2
C51A C99G U102G | ≤ -4.2
G50C C63G C96A C118U A119C | -0.626
G50C C51U G94C C116G C129A | ≤ -4.2
C51G C125U U144C | -4.07
C51A U127G A137C | ≤ -4.2
G50U C79G A98U C99G | ≤ -4.2
G50U C93U C103G G141C | ≤ -4.2
C51U U56A C57A C105G A122G | -2.19
A52C C57A A66C A97G G141U | ≤ -4.2
A52C A98U | -0.983
C51U G74U C75A | ≤ -4.2
C51U G86U | -1.45
G50U U53G G100C C125U U130G | ≤ -4.2

Variant | polymerase ribozyme fitness (log ratio)
G50C C54U G86A C108U | ≤ -4.2
G50C C149U | ≤ -4.2
G50U C79G G88U G94C U101C C125A | ≤ -4.2
C51A U55A C93A U101C G112C | ≤ -4.2
G50C U82G G84U C103U A119U A120U | ≤ -4.2
G50U G81A C95U | 0.505
G50C C95U | -3.47
C51U G58U G112C | ≤ -4.2
G50U C69U C99U | -3.41
C51U U56A C87A C95U C118A U139C | ≤ -4.2
A52C C54U G68A C93U C103A A106G A110U | ≤ -4.2
G50C C96A | -3.01
C51U G84U | -1.52
C51A G67C G92U C95A U144A | ≤ -4.2
A52C C54A A137U A147C | ≤ -4.2
G50U C51U G58U C108G C123G | ≤ -4.2
C51A C85U A91U A120C A137G | ≤ -4.2
C51U U82A C95U | -1.29
G50C C87U | -3.6
G50U A52C G88A A115C A147U | ≤ -4.2
C51U C75U G88A C93U G94A G136C | ≤ -4.2
C51U C57G A60C C69U C85G C118A | ≤ -4.2
C51G A52G C72U G74U A98G C118U A119C G140C | ≤ -4.2
G50U U53C U56A G70A G84C A91C A119C | ≤ -4.2

Variant | polymerase ribozyme fitness (log ratio)
C51U G88C | -4.09
G50U U82G C96G A107U A138U C149U | ≤ -4.2
G50U C87U G152U | -4.17
G50U G88C U102G C132G G136U U148C | ≤ -4.2
G50C U134C | -2.51
C51U C75U C118U | -1.3
C51U A98U U135C U144A | -3.82
C51G U56G C93U | -3.95
G50U G83U C85G | -4.13
C51U C96A C105A C118U | -2.94
G50U C87U C96A | -1.48
G50U C125G | -0.442
C51A A66G G71A G80C G94C A113G | ≤ -4.2
C51A G71A G92A | ≤ -4.2
C51U G88U U90C G94A C95U A147G | ≤ -4.2
C51U C69U C96G | -3.06
G50C C93G | ≤ -4.2
C51U A52U G92U G100U | ≤ -4.2
C51U C87A | ≤ -4.2
G50C G86U U102C A121C | ≤ -4.2
G50U G68A G86A C96U C123G C129G | ≤ -4.2
C51G G70C G84U U146G A150C | ≤ -4.2
C51A U77C G84A C96U | ≤ -4.2
G50C U55A G80U A89C C95A A121C A142C | ≤ -4.2

Variant | polymerase ribozyme fitness (log ratio)
G50C G67A C87U U144C | ≤ -4.2
C51U A60G C87A | ≤ -4.2
G50U C54U C93U U104G C116G A142U | ≤ -4.2
G50C G71U C85A G124U | ≤ -4.2
G50U A52C A64C G92C | ≤ -4.2
C51U C99U | -0.392
C51G A52C A107U A137C | ≤ -4.2
C51U A91G C93U | ≤ -4.2
G50U G59A A60G U77A G94U G140A | ≤ -4.2
G50U C95G A122U G152C | ≤ -4.2
C51A G70A G71A U78G A91U G117A U134G U135A | ≤ -4.2
C51A C57A G67U G68A C85G C87A U139C G141C A142U | ≤ -4.2
G50U C85U G88C U135G | ≤ -4.2
A52C A60C C79U C93A G152U | ≤ -4.2
C51U C72U G92C A98G U127G A138C G140A | ≤ -4.2
C51U G67C C85A G133U | ≤ -4.2
G50U G94A | -0.00242
C51A G74C U77A C85G G100U U151C | ≤ -4.2
C51A U55G A60G C93U C108A | ≤ -4.2
C51A C79A | ≤ -4.2
C51A C75G G86A U90G G136C | ≤ -4.2
G50U G59A A60G U77A G94U | ≤ -4.2
G50C U78G G84A G124C | ≤ -4.2
C51U C69G G92A C93U C116U U139G | ≤ -4.2

Variant | polymerase ribozyme fitness (log ratio)
G50C U55A A64C C87A U145G | ≤ -4.2
C51U A60U G84A A98G A121C G143U A147C | ≤ -4.2
A52C C57U G81C | -1.59
C51U C87A U127A A142C | ≤ -4.2
C51G G71U U90A C93U | ≤ -4.2
C51A U55A C85U U102G A150G | ≤ -4.2
G50C U56A C72A C103A | ≤ -4.2
A52C A91U C93A G133C | ≤ -4.2
G50C U56G G71U G88A C108G A113G | ≤ -4.2
C51A G71C C75U C87U U102G A106U G136C | ≤ -4.2
G50U U90G | ≤ -4.2
C51G U148G | ≤ -4.2
C51G U148A | ≤ -4.2
G50C G81A G86U C87A G136U | ≤ -4.2
C51A G86A C118A | -3.43
G50C U55C C72A | ≤ -4.2
C51A A52C A73G G83U U127C | ≤ -4.2
G50C G94A C116U | -3.3
C51A G59U G84U | ≤ -4.2
G50C C85A A91C G133C | ≤ -4.2
G50U C75G G86U C87A A89U | ≤ -4.2
G50U G81C C108A A120G U130A | ≤ -4.2
A52C C54A | ≤ -4.2
G50U C57U A73U G86U G126U | ≤ -4.2

Variant | polymerase ribozyme fitness (log ratio)
C51U A89G C99U A150G | -3.67
G50C G59C C95G | -3.67
C51U C85G A115C | -1.9
G50U U53G G80A C85U U90C C93A A97U C99G A119G U127C | ≤ -4.2
C51A G59A U77C C105U A115G | ≤ -4.2
G50U C72A U82C A91U A119U U144A U148A | ≤ -4.2
G50C C129U | -3.94
A52C A89U C96G G141U | -1.47
G50U A60U C75U C93A C118A | ≤ -4.2
C51U C95A A98U C116G | 0.822
G50U A60C G84A | -2.47
C51G U53A G141U | ≤ -4.2
A52C C57A A73G C132G | ≤ -4.2
C51U G92A G133U | ≤ -4.2
G50C C63G C75A | ≤ -4.2
G50C C114U | ≤ -4.2
C51U G58A | -1.32
G50C G83U C93A G100U G124C G128U C132G U145G | ≤ -4.2
C51G G68A C93G U101G | ≤ -4.2
G50C C76A G83U G92A C95A | ≤ -4.2
C51G C87A C93G C105A A113U | ≤ -4.2
C51G A60U U78A A113G G128A | ≤ -4.2
C51A A60G G65U G84U G94C U146C | ≤ -4.2
G50U A60C G94A U104G A113U C118U U127C | ≤ -4.2

Variant | polymerase ribozyme fitness (log ratio)
C51A G86C A89U A113U G126A G141U | ≤ -4.2
G50U U61C G84A A91C A107G C116G U148C | ≤ -4.2
C51A G92U C105G | ≤ -4.2
A52C C57U C85U U135A | -1.62
C51U C57A G58A C79G U127A | ≤ -4.2
G50C G86U C116A C132A | ≤ -4.2
G50U C54G U55A A60C C69U G74A G92C U102A U134C | ≤ -4.2
C51A U56A C79A C93G A98C C99U C118A C123G | ≤ -4.2
G50C C76G G83U G86C C118U A121U | ≤ -4.2
C51U G84A C96A C149U | -2.56
G50U U53G C69G G94A | ≤ -4.2
G50U G81C U134A | -2.19
G50C G68U | ≤ -4.2
C51A C72U G92U G94A | ≤ -4.2
G50C U77A G84A | ≤ -4.2
C51G C79A C149U | ≤ -4.2
G50U U77A | ≤ -4.2
G50U C99A | -1.59
C51A C96A A107U A115C | ≤ -4.2
G50U C95G A142C U148A | ≤ -4.2
C51U A52U G74C A113C C131A | ≤ -4.2
C51A C79U C93A U104A G140C | ≤ -4.2
C51A U55G G58U C95A | -1.74
